Experimental data taken from the supplement of paper PMC8728848.
This is one part of the list.

Legend:
Experiment in all cases: glycan array binding signal (z-score within array); higher = stronger binding
Settings in all cases: glycan notation: IUPAC condensed, linker removed
[1] = target: Fuc(a1-3)[Gal3S(b1-4)]GlcNAc6S
How it was run: (§1)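 Glycan array data were curated from 3228 arrays in the Consortium for Functional Glycomics database and kept only where the protein sequence was available. Glycan names were converted to IUPAC-condensed notation, and columns mapping to the same glycan were averaged. The binding signal is a within-array Z-score, averaged across arrays of the same protein sequence at different concentrations or buffers and across linkers. Negative Z-scores can be read as non-binding.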

[2] = target: Fuc(a1-3)[GalNAc(b1-4)]GlcNAc
How it was run: as §1

[3] = target: Fuc(a1-3)[GalNAc(b1-4)]GlcNAc6S
How it was run: as §1

Fuc(a1-4)GlcNAc = target: Fuc(a1-4)GlcNAc
How it was run: as §1

Fuc(b1-3)GlcNAc = target: Fuc(b1-3)GlcNAc
How it was run: as §1

Gal(a1-2)Gal = target: Gal(a1-2)Gal
How it was run: as §1

Gal(a1-3)Gal = target: Gal(a1-3)Gal
How it was run: as §1

Gal(a1-3)Gal(b1-3)GlcNAc = target: Gal(a1-3)Gal(b1-3)GlcNAc
How it was run: as §1

[4] = target: Gal(a1-3)Gal(b1-3)GlcNAc(b1-2)Man
How it was run: as §1

[5] = target: Gal(a1-3)Gal(b1-3)GlcNAc(b1-2)Man(a1-3)[Gal(a1-3)Gal(b1-3)GlcNAc(b1-2)Man(a1-6)]Man(b1-4)GlcNAc(b1-4)GlcNAc
How it was run: as §1

[6] = target: Gal(a1-3)Gal(b1-3)GlcNAc(b1-3)GalNAc
How it was run: as §1

[7] = target: Gal(a1-3)Gal(b1-3)GlcNAc(b1-6)GalNAc
How it was run: as §1

[8] = target: Gal(a1-3)Gal(b1-3)[Fuc(a1-4)]GlcNAc(b1-2)Man(a1-3)[Gal(a1-3)Gal(b1-3)[Fuc(a1-4)]GlcNAc(b1-2)Man(a1-6)]Man(b1-4)GlcNAc(b1-4)GlcNAc
How it was run: as §1

Gal(a1-3)Gal(b1-4)Glc = target: Gal(a1-3)Gal(b1-4)Glc
How it was run: as §1

Gal(a1-3)Gal(b1-4)GlcNAc = target: Gal(a1-3)Gal(b1-4)GlcNAc
How it was run: as §1

[9] = target: Gal(a1-3)Gal(b1-4)GlcNAc(b1-2)Man
How it was run: as §1

[10] = target: Gal(a1-3)Gal(b1-4)GlcNAc(b1-2)Man(a1-3)[Gal(a1-3)Gal(b1-4)GlcNAc(b1-2)Man(a1-6)]Man(b1-4)GlcNAc(b1-4)GlcNAc
How it was run: as §1

[11] = target: Gal(a1-3)Gal(b1-4)GlcNAc(b1-3)GalNAc
How it was run: as §1

[12] = target: Gal(a1-3)Gal(b1-4)GlcNAc(b1-6)GalNAc
How it was run: as §1

[13] = target: Gal(a1-3)Gal(b1-4)[Fuc(a1-3)]GlcNAc
How it was run: as §1

[14] = target: Gal(a1-3)Gal(b1-4)[Fuc(a1-3)]GlcNAc(b1-2)Man(a1-3)[Gal(a1-3)Gal(b1-4)[Fuc(a1-3)]GlcNAc(b1-2)Man(a1-6)]Man(b1-4)GlcNAc(b1-4)GlcNAc
How it was run: as §1

Gal(a1-3)GalNAc = target: Gal(a1-3)GalNAc
How it was run: as §1

[15] = target: Gal(a1-3)[Gal(a1-4)]Gal(b1-4)GlcNAc
How it was run: as §1

[16] = target: Gal(a1-4)Gal(b1-3)GlcNAc(b1-2)Man(a1-3)[Gal(a1-4)Gal(b1-3)GlcNAc(b1-2)Man(a1-6)]Man(b1-4)GlcNAc(b1-4)GlcNAc
How it was run: as §1

Gal(a1-4)Gal(b1-4)Glc = target: Gal(a1-4)Gal(b1-4)Glc
How it was run: as §1

Gal(a1-4)Gal(b1-4)GlcNAc = target: Gal(a1-4)Gal(b1-4)GlcNAc
How it was run: as §1

[17] = target: Gal(a1-4)Gal(b1-4)GlcNAc(b1-2)Man(a1-3)[Gal(a1-4)Gal(b1-4)GlcNAc(b1-2)Man(a1-6)]Man(b1-4)GlcNAc(b1-4)GlcNAc
How it was run: as §1

[18] = target: Gal(a1-4)Gal(b1-4)GlcNAc(b1-3)Gal(b1-4)Glc
How it was run: as §1

Gal(a1-4)GlcNAc = target: Gal(a1-4)GlcNAc
How it was run: as §1

Gal(a1-6)Glc = target: Gal(a1-6)Glc
How it was run: as §1

Gal(b1-2)Gal = target: Gal(b1-2)Gal
How it was run: as §1

Gal(b1-3)Gal = target: Gal(b1-3)Gal
How it was run: as §1

Gal(b1-3)Gal(b1-4)GlcNAc = target: Gal(b1-3)Gal(b1-4)GlcNAc
How it was run: as §1

Gal(b1-3)GalNAc = target: Gal(b1-3)GalNAc
How it was run: as §1

[19] = target: Gal(b1-3)GalNAc(a1-3)[Fuc(a1-2)]Gal(b1-4)Glc
How it was run: as §1

[20] = target: Gal(b1-3)GalNAc(a1-3)[Fuc(a1-2)]Gal(b1-4)GlcNAc
How it was run: as §1

Gal(b1-3)GalNAc(b1-3)Gal = target: Gal(b1-3)GalNAc(b1-3)Gal
How it was run: as §1

B1: PX9937B-bvu-524-33-524 (Bacteroides vulgatus) (protein)
chain: GTAYWKNPDQFTAFNTGLHALLREKSYNFFLLGEPRADIYGDNPIGGEASQGMERLPFNTINKENVGISNYGDMYKIINQINQMIAKTTETTILTEATQNYYLGEAYGMRAYLYFHLLRSWGDVVLYLDYTEGQNLDLSNITKGVSPATEVMEQIKKDIQASENAFGSDYSFKLGRHFWSAAATQMLKGEAYLWSGRQMNGGNSDYTIAKNAFENVKKADVGLVTSSFKDIFSFENKKNKEMIFTIHNGKDEYEMWGGYYRMRLIPAQDKMVKIYCDENGNSFVGTPDAQLNGLTQLQVRREFYFKGFRNNDTRWTTSLKAVYKKDAQGVVSYFGPITYKFQGTMLEGGSTRSFLDDFPIYRYADCLLQLAMAKVLLGEDPTEEINAVRERAYGSKYFNEHKAEIAYPNDNDPEFYTDNKWMKPDNAGALEAILKERLREFMFEGKRWYDIRLLGWDYVHQYSSAEQSRLLWPIDAGTLTNNSALKQTPGYE
- glycan array binding signal (z-score) [1]: -0.345
- glycan array binding signal (z-score) [2]: 0.141
- glycan array binding signal (z-score) [3]: -0.011
- glycan array binding signal (z-score) (Fuc(a1-4)GlcNAc): -0.428
- glycan array binding signal (z-score) (Fuc(b1-3)GlcNAc): -0.213
- glycan array binding signal (z-score) (Gal(a1-2)Gal): -0.452
- glycan array binding signal (z-score) (Gal(a1-3)Gal): -0.473
- glycan array binding signal (z-score) (Gal(a1-3)Gal(b1-3)GlcNAc): -0.434
- glycan array binding signal (z-score) [4]: -0.42
- glycan array binding signal (z-score) [5]: -0.009
- glycan array binding signal (z-score) [6]: 0.134
- glycan array binding signal (z-score) [7]: 6.13
- glycan array binding signal (z-score) [8]: 0.296
- glycan array binding signal (z-score) (Gal(a1-3)Gal(b1-4)Glc): -0.297
- glycan array binding signal (z-score) (Gal(a1-3)Gal(b1-4)GlcNAc): -0.286
- glycan array binding signal (z-score) [9]: -0.063
- glycan array binding signal (z-score) [10]: 2.91
- glycan array binding signal (z-score) [11]: -0.383
- glycan array binding signal (z-score) [12]: -0.216
- glycan array binding signal (z-score) [13]: -0.389
- glycan array binding signal (z-score) [14]: 1.23
- glycan array binding signal (z-score) (Gal(a1-3)GalNAc): -0.384
- glycan array binding signal (z-score) [15]: 0.889
- glycan array binding signal (z-score) [16]: 0.413
- glycan array binding signal (z-score) (Gal(a1-4)Gal(b1-4)Glc): 0.805
- glycan array binding signal (z-score) (Gal(a1-4)Gal(b1-4)GlcNAc): -0.219
- glycan array binding signal (z-score) [17]: 0.043
- glycan array binding signal (z-score) [18]: -0.305
- glycan array binding signal (z-score) (Gal(a1-4)GlcNAc): -0.412
- glycan array binding signal (z-score) (Gal(a1-6)Glc): -0.181
- glycan array binding signal (z-score) (Gal(b1-2)Gal): -0.37
- glycan array binding signal (z-score) (Gal(b1-3)Gal): -0.297
- glycan array binding signal (z-score) (Gal(b1-3)Gal(b1-4)GlcNAc): -0.504
- glycan array binding signal (z-score) (Gal(b1-3)GalNAc): 0.537
- glycan array binding signal (z-score) [19]: -0.478
- glycan array binding signal (z-score) [20]: -0.301
- glycan array binding signal (z-score) (Gal(b1-3)GalNAc(b1-3)Gal): 0.74
